According to PMC6919601, “Identification of Plasmodium dipeptidyl aminopeptidase allosteric inhibitors by high throughput screening” (PLoS ONE, 2019):
Where “and” joins values, the source holds several entries; their conditions need not be identical. Equal entries are not always repeated. Out of some 110,000 compounds screened, about 230 (0.21%) showed an effect of 50% or more. The list shows a part of the results.

These molecules were tested against DPAP1 (Plasmodium falciparum, UniProt Q8IIJ9) (assay: primary screen, percent inhibition; read by cleavage of a fluorogenic dipeptide substrate; higher = more effect of the substance).
Design: species or system P. falciparum D10 trophozoite lysates; single well
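Also: 30 min substrate incubation versus DMSO and 10 µM JCP410 controls.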

DPAP1, sequence (Q8IIJ9 whole entry, looked up): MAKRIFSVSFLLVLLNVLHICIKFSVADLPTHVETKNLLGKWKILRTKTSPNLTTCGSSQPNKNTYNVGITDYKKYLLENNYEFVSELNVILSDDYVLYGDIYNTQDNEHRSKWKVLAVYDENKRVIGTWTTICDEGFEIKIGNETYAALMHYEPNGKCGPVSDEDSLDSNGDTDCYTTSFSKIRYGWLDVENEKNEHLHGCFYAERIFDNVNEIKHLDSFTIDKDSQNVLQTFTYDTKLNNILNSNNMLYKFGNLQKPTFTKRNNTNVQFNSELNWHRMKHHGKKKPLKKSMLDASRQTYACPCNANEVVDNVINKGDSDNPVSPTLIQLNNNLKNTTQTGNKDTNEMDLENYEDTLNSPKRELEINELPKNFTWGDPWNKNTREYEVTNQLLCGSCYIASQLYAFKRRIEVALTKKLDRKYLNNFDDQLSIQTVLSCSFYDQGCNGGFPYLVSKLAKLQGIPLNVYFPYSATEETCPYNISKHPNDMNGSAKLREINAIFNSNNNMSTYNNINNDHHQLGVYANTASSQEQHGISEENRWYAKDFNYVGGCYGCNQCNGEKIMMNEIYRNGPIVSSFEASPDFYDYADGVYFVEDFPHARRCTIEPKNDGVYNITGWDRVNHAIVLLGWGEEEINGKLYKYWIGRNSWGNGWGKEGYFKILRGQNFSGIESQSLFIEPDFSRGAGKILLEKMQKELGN

First: COc1ccc(C(=O)Nc2nc(C)c(C)s2)c(OC)c1
Second: CCCNC(=O)C1CC(c2cc(OC)ccc2OC)=NO1 (stereo not drawn)
The “% Inhibition @ 10 uM” value of the first is higher: -0.999% for the first, -5.79% for the second.

Compared with `COC(=O)C1=CN(C(C)C)C=C(C(=O)OC)C1c1ccc(C(F)(F)F)cc1`, `Cn1c(=O)[nH]c2nnc(-c3ccc(C(F)(F)F)cc3)nc2c1=O` is higher in “% Inhibition @ 10 uM” value: -3.23% for the first, -1.11% for the second.

Going from `CC(=O)c1sc(N2C(=O)C(O)=C(C(=O)c3cc4ccccc4o3)C2c2ccc(F)cc2)nc1C` (stereo not drawn) to `CC(C)c1ccc(C2C(C(=O)c3ccccc3)=C(O)C(=O)N2Cc2cccnc2)cc1` (stereo not drawn), the “% Inhibition @ 10 uM” value rises from -1.82% to 6.02%.

Going from `OCc1nc2cc3[nH]c(O)nc3cc2[nH]1` to `Cc1ccc2[nH]c(/C(C#N)=C/c3cccc4ccccc34)nc2c1`, the “% Inhibition @ 10 uM” value rises from 0.0538% to 1.76%.

First: CC1CC(C)(C)NC(=S)N1CCC(=O)NCc1ccco1 (stereo not drawn)
Second: CC(C)CCn1c(=O)c2ccccc2n2c(CCC(=O)NCCN3CCCC3)nnc12
The “% Inhibition @ 10 uM” value of the first is lower: 7.39% for the first, 8.05% for the second.

Going from `CCOc1c([N+](=O)[O-])cc2c(C)c(C(=O)O)oc2c1OCC` to `COc1ccc(NC(=O)c2ccc([N+](=O)[O-])c(C)c2)cc1Cl`, the “% Inhibition @ 10 uM” value falls from 4.54% to -3.79%.

Going from `Cc1ccc2oc(=O)c3cnn(CC(=O)NC4CCCCC4)c3c2c1` to `CCNC(=O)c1cc2c(=O)n3ccccc3nc2n(C2CCCCC2)c1=N`, the “% Inhibition @ 10 uM” value rises from -3.45% to 3.6%.

First: Cn1nc(C(=O)NCC2CCCO2)c2c1-c1ccccc1S(=O)(=O)C2 (stereo not drawn)
Second: Cc1nc2ccn(Cc3cccnc3)c(=O)c2cc1C(=O)NCC1CCCO1 (stereo not drawn)
The “% Inhibition @ 10 uM” value of the first is higher: -0.788% for the first, -3.62% for the second.

Compared with `CCOc1cccc(OCC)c2c(C)[n+](-c3ccc(OC)cc3)c(C)c1-2`, `CCOc1ccc(-n2cc(-c3ccc(Br)cc3)nc2O)cc1` is higher in “% Inhibition @ 10 uM” value: -3.53% for the first, 1.23% for the second.

First: CC1CC(C)CN(C(=O)C2CCN(S(=O)(=O)c3cccs3)CC2)C1 (stereo not drawn)
Second: CC1CCCCN1C(=O)C1CCCN(S(=O)(=O)c2ccccc2)C1 (stereo not drawn)
The “% Inhibition @ 10 uM” value of the first is higher: 6.29% for the first, 4.12% for the second.

Compared with `COc1ccccc1N1CCN(CC(O)COC(C)C)CC1` (stereo not drawn), `Cc1ccsc1CN1CCN(c2ccccc2F)CC1` is higher in “% Inhibition @ 10 uM” value: -13.3% for the first, -3.65% for the second.

Going from `O=C(Nc1ccc(S(=O)(=O)N2CCCCCC2)cc1)c1ccccc1` to `CC1CCN(S(=O)(=O)c2ccc(NC(=O)c3ccc(Cl)cc3)cc2)CC1`, the “% Inhibition @ 10 uM” value rises from 2.55% to 4.75%.

First: CC1=CC2=NC(=O)/C(=C\c3cccn3CCOc3ccc(Cl)c(C)c3)C(=N)N2O1
Second: Cc1ccc(/C=C2/N=C(c3cccc(Cl)c3Cl)OC2=O)o1
The “% Inhibition @ 10 uM” value of the first is higher: -3.23% for the first, -4.57% for the second.

Compared with `N#CC1=C2SCN(Cc3ccccc3)CN2C(=O)CC1c1cccc2ccccc12` (stereo not drawn), `O=C(C1c2ccccc2Oc2ccccc21)N1CCN(Cc2ccccc2)CC1` is lower in “% Inhibition @ 10 uM” value: 51.5% for the first, -2.8% for the second.

Compared with `CCCCSc1snc(O)c1C#N`, `COc1ccc(C(=O)CSc2nc(O)c(C#N)c(-c3ccccc3)n2)cc1` is higher in “% Inhibition @ 10 uM” value: -1.94% for the first, 3.72% for the second.

Going from `N#C/C(=C\c1ccccc1Cl)c1nc(-c2cc3ccccc3oc2=O)cs1` to `O=C(/C=C/c1ccccc1Cl)NCCc1ccccc1`, the “% Inhibition @ 10 uM” value falls from 3.06% to -0.351%.

Going from `CC(=O)N1C(=N)S/C(=C/c2cc3ccc(C)cc3nc2O)C1=O` to `N=C1S/C(=C\c2ccccc2F)C(=O)N1c1ccccc1F`, the “% Inhibition @ 10 uM” value rises from 0.275% to 6.79%.

Compared with `CN1CCN(c2nc(-c3ccc(C(=O)N4CCCC(C(=O)NCC#N)C4)cc3)cs2)CC1` (stereo not drawn), `CCN1CCCC1CNC(=O)c1ccc2c(c1)sc1nc(-c3ccc(C)cc3)cn12` (stereo not drawn) is higher in “% Inhibition @ 10 uM” value: 0.079% for the first, 9.79% for the second.

Going from `C=Cc1ccc(Cn2c(C(=O)O)c(CNCCc3ccccc3C)c3ccc(C)cc32)cc1` to `Cc1ccc(CCNCc2c(C(=O)O)n(Cc3ccccc3Cl)c3ccccc23)cc1`, the “% Inhibition @ 10 uM” value rises from 0.00226% to 9.46%.

Going from `Cc1ccc(C2=NN3C(C2)c2cc(Br)ccc2OC3c2ccncc2)s1` (stereo not drawn) to `CC1=NN(c2ccc([N+](=O)[O-])cc2)C(=O)/C1=C/c1ccc(N(C)C)cc1`, the “% Inhibition @ 10 uM” value falls from 0.628% to -6.52%.

First: CCOc1ccc(OCc2cccc(C(=O)N3N=C(C(F)F)CC3(O)C(F)F)c2)cc1 (stereo not drawn)
Second: COc1ccc(CC(=O)Nc2ccc(Oc3ccccc3)cc2)cc1
The “% Inhibition @ 10 uM” value of the first is lower: -5.6% for the first, -0.0925% for the second.

Compared with `Cc1cc(NC(=O)CSc2nc3nccnc3c(=O)n2Cc2ccccc2Cl)[nH]n1`, `Cc1cc(C)n2nc(SCC(=O)Nc3ccc(Cl)c(Cl)c3)nc2n1` is lower in “% Inhibition @ 10 uM” value: -8.34% for the first, -14.3% for the second.

Compared with `Cc1nc(NCCCO)c2c3c(sc2n1)CCC3`, `COC(=O)c1[nH]c2sc3c(c2c1-n1cccc1)CCCC3` is lower in “% Inhibition @ 10 uM” value: 2.5% for the first, 1.52% for the second.

Compared with `N#CCCS(=O)(=O)c1cc(Cl)ccc1Cl`, `O=C1CCC(C(=O)NCc2ccc(Cl)cc2)N1` (stereo not drawn) is lower in “% Inhibition @ 10 uM” value: -0.736% for the first, -0.8% for the second.

Compared with `CCc1sc(NC(=O)CCC(=O)O)nc1-c1ccccc1`, `C=C(C)CNc1nc(-c2ccccc2)c(-c2ccccc2)s1` is lower in “% Inhibition @ 10 uM” value: 0.22% for the first, 0.131% for the second.

Compared with `CS(=O)(=O)N(CC(=O)Nc1ccc2c(c1)OCCO2)c1cccc(F)c1`, `COc1ccccc1C(=O)N/C(=C/c1ccc2c(c1)OCO2)C(=O)Nc1cccc(C(=O)O)c1` is lower in “% Inhibition @ 10 uM” value: 69.8% for the first, -1.06% for the second.

Compared with `Cc1ccc(NC(=O)CSCc2ccc(C#N)cc2)cc1`, `Cc1ccc2onc(CC(=O)NCc3ccc(F)cc3)c2c1` is lower in “% Inhibition @ 10 uM” value: 4.3% for the first, -4.42% for the second.

Compared with `CC(CN1CCCC1CO)c1ccccc1` (stereo not drawn), `CCCN1CCC(NC(c2ccccc2)c2ccccc2)CC1` is lower in “% Inhibition @ 10 uM” value: -2.56% for the first, -6.62% for the second.

Going from `CCOc1ccc(N2C(=O)C3C4C=CC(C4=C(C)C)C3C2=O)cc1` (stereo not drawn) to `CCCn1c(Oc2ccc(Br)cc2)nc2c1c(=O)n(C)c(=O)n2C`, the “% Inhibition @ 10 uM” value falls from -2.8% to -3.37%.

First: CCCC[C@@H](NC(=O)OCc1ccccc1)C(=O)NCC#N
Second: CC(C)C[C@H](NC(=O)c1cccc(NC(=O)N(C)C2CCN(Cc3ccccc3)C2)c1)C(=O)NCC#N (stereo partly drawn)
The “% Inhibition @ 10 uM” value of the first is lower: -6.56% for the first, -2.35% for the second.

Compared with `COc1ccc(OC)c(CNC(=O)C(C)n2nc(C)c3c(C)n(-c4ccccc4)nc3c2=O)c1` (stereo not drawn), `Cc1cccn2c(=O)c3cc(C(=O)N(C)Cc4ccccc4)n(C)c3nc12` is higher in “% Inhibition @ 10 uM” value: -1.03% for the first, 3.72% for the second.

Going from `COc1ccc(N2CCN(C(=O)C(C)N(c3ccc(OC)cc3)S(C)(=O)=O)CC2)cc1` (stereo not drawn) to `COc1cc(CN2CCN(c3ccc(C(C)=O)cc3)CC2)cc(OC)c1O`, the “% Inhibition @ 10 uM” value rises from -4.93% to -1.41%.

Compared with `O=C(NCCN1CCCCC1)c1sc2ccccc2c1Cl`, `c1ccc2c(CN3CCCCCCC3)c[nH]c2c1` is lower in “% Inhibition @ 10 uM” value: 2.6% for the first, -4.61% for the second.

First: COC(=O)CN(C)C(=O)Oc1ccc(C)cc1
Second: CCOc1ccccc1C(=O)Nc1ccccc1C
The “% Inhibition @ 10 uM” value of the first is higher: 1.66% for the first, -7.08% for the second.

Compared with `CCCOc1ccc(Oc2nc(NCC(C)C)nc(NC(C)(C)C)n2)nn1`, `COCCCNC(=O)C(C)n1c2ccccc2c2cnnc(O)c21` (stereo not drawn) is lower in “% Inhibition @ 10 uM” value: -1.31% for the first, -5.87% for the second.

First: N#CC1=C(SCc2ccccc2)SC(c2ccccc2O)NC1=O (stereo not drawn)
Second: O=C(Nc1ccccc1Oc1ccccc1)c1cccc(F)c1
The “% Inhibition @ 10 uM” value of the first is lower: -3.76% for the first, 4.81% for the second.

First: OC(C#CCN1CCCCC1)(c1ccccc1)C1CCCCC1 (stereo not drawn)
Second: CCC1CCCCN1CCCNC(=O)c1ccc2nc(N3CCCCC3)sc2c1 (stereo not drawn)
The “% Inhibition @ 10 uM” value of the first is lower: -4.43% for the first, -0.637% for the second.

Going from `Cc1nc(-c2ccc(S(=O)(=O)N3CCC(Cc4ccccc4)CC3)cc2)cs1` to `O=[N+]([O-])c1ccc(S(=O)(=O)NCc2ccccc2)cc1`, the “% Inhibition @ 10 uM” value rises from -2.67% to -0.0372%.

Compared with `CCCCn1c2ccccc2c2nnc(SCC(=O)NC3=NC(=O)CS3)nc21`, `Cn1c2ccccc2c2nnc(SCC(=O)N3CCN(C45CC6CC(CC(C6)C4)C5)CC3)nc21` is higher in “% Inhibition @ 10 uM” value: -1.33% for the first, 2.77% for the second.

First: O=C1OC(c2ccc(F)cc2)=N/C1=C\c1ccccc1C(F)(F)F
Second: O=S(=O)(c1ccccc1F)N1CCN(S(=O)(=O)c2ccccc2F)CC1
The “% Inhibition @ 10 uM” value of the first is lower: -0.441% for the first, 5.63% for the second.

First: CCOC(=O)N1CCN(c2c(N3CC=C(c4ccccc4)CC3)c(=O)c2=O)CC1
Second: O=C(c1ccco1)N1CCN(C(=O)c2cc3c(s2)-c2ccccc2OC3)CC1
The “% Inhibition @ 10 uM” value of the first is higher: -3.21% for the first, -4.85% for the second.

First: COc1ccc(C2NCCc3c2[nH]c2ccccc32)cc1O (stereo not drawn)
Second: Cc1oc2c(c1C(=O)NCCc1c[nH]c3ccccc13)C(=O)c1ccccc1C2=O
The “% Inhibition @ 10 uM” value of the first is lower: -3.62% for the first, -3.53% for the second.

First: CC(C)CC(C(=O)NCC#N)c1ccc(NC(=O)NCc2ccncc2)cc1 (stereo not drawn)
Second: CCC(=O)Nc1ccc2nc(SCC(=O)NCC3CCCO3)sc2c1 (stereo not drawn)
The “% Inhibition @ 10 uM” value of the first is lower: -3.97% for the first, -3.9% for the second.

Going from `CCCN(CCO)C/C(C)=C/c1ccccc1` to `COC(=O)c1ccn(Cc2ccccc2Cl)n1`, the “% Inhibition @ 10 uM” value rises from -7.93% to -5.53%.

Compared with `CCN1CCC(N2CCCC(C)C2)CC1` (stereo not drawn), `COc1ccc(C2C(C(=O)NCC3CCCO3)c3ccccc3C(=O)N2C2CCCCC2)cc1` (stereo not drawn) is higher in “% Inhibition @ 10 uM” value: -0.0908% for the first, 9.55% for the second.

Compared with `Cn1ncc(Br)c1C(=O)N1CCc2ccccc21`, `CC1CCCCN1c1nc2c(S(=O)(=O)c3ccccc3)nnn2c2ccccc12` (stereo not drawn) is higher in “% Inhibition @ 10 uM” value: -5.69% for the first, -4.85% for the second.

First: CCCC[C@H](NC(=O)[C@H](CS(C)(=O)=O)NC(=O)N1CCOCC1)C(=O)c1nc2ccccc2o1
Second: Cn1c(=O)c2c(ncn2CCC(=N)N2CCOCC2)n(C)c1=O
The “% Inhibition @ 10 uM” value of the first is lower: -0.214% for the first, 2.49% for the second.

First: CSc1ccc(CN2CCN(c3ncccn3)CC2)cc1
Second: Cc1nnc(NC(=O)CSc2ccc3nnc(-c4cccc(F)c4)n3n2)s1
The “% Inhibition @ 10 uM” value of the first is lower: -0.828% for the first, 1.93% for the second.

Going from `COc1cc(C2C(C#N)=C(N)Oc3[nH]nc(-c4cc(C)sc4C)c32)cc(OC)c1O` (stereo not drawn) to `COC(=O)/C(C#N)=C/c1cc2c(cc1Br)OCO2`, the “% Inhibition @ 10 uM” value falls from 4.09% to -6.74%.

For `Cc1[nH]nc(NC(=O)C(C(F)(F)F)C(F)(F)F)c1-c1ccccc1`, the “% Inhibition @ 10 uM” value was -8.36% and -1.61%.
